Experimental data taken from the RNAGym collection of RNA variant scans (doi:10.7554/elife.90254).
The source gives no read counts; variants with many changes may rest on few reads.

B1: LINE1-full (parent)
chain: UACGUAGGUGGUUUUCCCCUGAUAGUGCUAAGGGGGCCUGGAAGUUUGGACUGGGCAGAGCUCAACACAGCGUGGCAAAGUGGCUGUGGCUAGACUGCCUCUCUGGAUUCCUCGUCACUCAGCAGGGCAUCUCUGAGAGAAAUGCC

Variants of: B1
Experiment: self-cleavage, relative activity (ratio to wild type); higher = more cleavage; in vitro, sequencing; the parent is a self-cleaving ribozyme

Row | Variant | self-cleavage
1 | UACGUAGGUGGUUUUCCCCUGAUAGUGCUAAGGGGGCCUGGGAGUUUGGACUGGGCAGAGCUCAACACAGCGUGGCAAGGUGGCUGUGGCUAGACUGCCUCUCUGGAUUCCUCGACACUCAGCAGGGCAUCUCUGAGAGAAAUGCC | 1.23
2 | UACGUAGGUGGUUUUCCCCUGAUAGUGCUAAGGGGGCCUGGGAGUUUGGACUGGGCAGAGCUCAACACAGCGUGGCAAUGUGGCUGUGGCUAGACUACCUCUCAGGAUUCCUCGUCACUCAGCAGGGCAUCUCUGAGAGAAAUGCC | 0.11
3 | UACGUAGGUGGUUUUCCCCUGAUAGUGCUAAGGGGGCCUGGGAGUUUGGACUGGGCAGAGCUCAACACAGCGUGGCAAAGUGGCUGUGGCUGGACUGCCUCUCUGGAUUCCUCGUCACUCAGCAGGGCGUCUCUGAGAGAAAUGCC | 0
4 | UACGUAGGUGGUUUUCCCCUGAUAGUGCUAAGGGGGCCUGGGAGUUUGGACUGGGCAGAGCUCAACACAGCGUGGCAAAGUGGCUGUGGCUGAACUGCCUCUCUGGAUUCCUCGUCACUCAGCAGGGCAACUCCGAGAGAAAUGCC | 0.26
5 | UACGUAGGUGGUUUUCCCCUGAUAGUGCUAAGGGGGCCUGGGAGUUUGGACUGGGCAGAGCUCAACACAGCGUGGCAAAGUGGCUGUGGCUAGACUGCCUCUCUGGAUUCCUCGUCGCUCAGCUGGGCAUCUCUGAGAGAAAUGCC | 2.83
6 | UACGUAGGUGGUUUUCCCCUGAUAGUGCUAAGGGGGCCUGGGAGUUUGGACUGGGCAGAGCUCAACACAGCGUGGCAAAGUGGCUGUGGCUAGACUGCCUCUCUGGAUUCCUCGUCACUCCGCAGGGCAUCUCUGAGAGGAAUGCC | 1.7
7 | UACGUAGGUGGUUUUCCCCUGAUAGUGCUAAGGGGGCCUGGGAGUUUGGACUGGGCAGAGCUCAACACAGCGUGGCAAAGUGGCUGUGGCUAGACUGCCUCUCUGGAUUCCUCGUCACUCUGCAGGGCACCUCUGAGAGAGAUGCC | 1.7
8 | UACGUAGGUGGUUUUCCCCUGAUAGUGCUAAGGGGGCCUGGGAGUUUGGACUGGGCAGAGCUCAACACAGCGUGGCAAAGUGGCUGUGGCUAGACUGCCUCUCUGGAUUCCUCGUCACUCAGCUGGGCAUCUCUGAGAGAGAUGCC | 0.86
9 | UACGUAGGUGGUUUUCCCCUGAUAGUGCUAAGGGGGCCUGGGAGUUUGGACUGGGCAGAGCUCAACACAGCGUGGCAAAGUGGCUGUGGCUAGACUGCCUCUCUGGAUUCCUCGUCACUCAGCUGGGCAUCACUGAGAGAAAUGCC | 2.34
10 | UACGUAGGUGGUUUUCCCCUGAUAGUGCUAAGGGGGCCUGGGAGUUUGGACUGGGCAGAGAUCAACACAGCGAGGCAAAGUGGCUGUGGCUAGACUGCCUCUCUGGAUUCCUCGUCACUCCGCAGGGCAUCUCCGAGAGAAAUGCC | 0.05
11 | UACGUAGGUGGUUUUCCCCUGAUAGUGCUAAGGGGGCCUGGGAGUUUGGACUGGGCAGAGCUCAACACAGCGUGGUAAAGUGGCUGUGGCUAGACAGCCUCUCUGGAUUCCUCGUCACUCAGCAGGGCUUCUCUGAGAGAAAUACC | 0.06
12 | UACGUAGGUGGUUUUCCCCUGAUAGUGCUAAGGGGGCCUGGGAGUUUGGACUGGGCAGAGCUCAACACAGCGUGGCAAAGUGGCUGUGGCUAGACUGCCUCUAUGGAUCCCUCGUCACUCAGCAGGGCAUCUCUGAGAGAAAUGCC | 1.83
13 | UACGUAGGUGGUUUUCCCCUGAUAGUGCUAAGGGGGCCUGGGAGUUUGGACUAGGCGGAGCUCAACACAGCGUGGCAAAGUGGCUGUGGCUAGACUGCCUCUCUGGAUUCCCCGUCACUCAGCAGGGCAUCUCUGAGAGAAAUGCC | 0.45
14 | UACGUAGGUGGUUUUCCCCUGAUAGUGCUAAGGGGGCCUGGGAGUUUGGACUAGGCAGAGCUCAACACAGCGUGGCAAAGUGGCUGUGGCUAGACUGCCUCUCUGGAUUCCUCGUCACUCAGCAGGGCAUCUCUGAGAGAAUUGCC | 1.63
15 | UACGUAGGUGGUUUUCCCCUGAUAGUGCUAAGGGGGCCUGGGAGUUUGGACUAGGCAGAGCUCAACACAGCGUGGCAAAGUGGCUGAGGCUAGACUGCCUCUCUGGAUUCCUCGUCACUCAGCGGGGCAUCUCUGAGAGAAAUGCC | 0.12
16 | UACGUAGGUGGUUUUCCCCUGAUAGUGCUAAGGGGGCCUGGGAGUUUGGACUGGGCAGAGCUCAACACAGCAUGGCAAAGUGGCUGUGGCUAGACUGCCUCUCUGGAUUCCUCGUCACUCAGCAGGGCAACUCUGAGAGAAAUGCC | 1.23
17 | UACGUAGGUGGUUUUCCCCUGAUAGUGCUAAGGGGGCCUGGGAGUUUGGACUGGGCAGAGCUCAACACAGCGUAGCAAGGUGGCUGUGGCUAGACUGCCUCUCUGGAUUCCUCGCCACUCAGCAGGGCAUCUCUGAGAGAAAUGCC | 2.63
18 | UACGUAGGUGGUUUUCCCCUGAUAGUGCUAAGGGGGCCUGGGAGUUUGGACUGGGCAGAGCUCAACACAGCGUGACAAAGUGGCUGUGGCUAGACUGCCUCUCUGGGUUCCUCGUCACUCAGCAGGGCAUCUCUGAGAGAAAUGCC | 2.24
19 | UACGUAGGUGGUUUUCCCCUGAUAGUGCUAAGGGGGCCUGGGAGUUUGGACUGGGCAGAGCUCAACACAGCGUGGCAAAAUGGCUGUGGCUAGACUGCCUCUCUGGAUUCCUCGUCACUCAGCAGAGCAUCUCUGAGAGAAAUGCC | 1.7
20 | UACGUAGGUGGUUUUCCCCUGAUAGUGCUAAGGGGGCCUGGGAGUUUGGACUGGGCAGAGCUCAACACAGCGUGGCAAAGUAGCUGUGGCUAGACUGCCUCUCUGGAUUCCUCGUCACUCAGCAGGGCAUCUCUGAGAGAAAAGCC | 1.48

Row | Variant | self-cleavage
21 | UACGUAGGUGGUUUUCCCCUGAUAGUGCUAAGGGGGCCUGGGAGUUUGGACUGGGCAGAGCUCAACACAGCGUGGCAAAGUCGCUGUGGCUAGACUGCCUCUCUGGAUUCCUCGUCACUCAGCAGGGCAUCUGUGAGAGAAAUGCC | 1.69
22 | UACGUAGGUGGUUUUCCCCUGAUAGUGCUAAGGGGGCCUGGGAGUUUGGACUGGGCAGAGCUCAACACAGCGUGGCAAAGUGACAGUGGCUAGACUGCCUCUCUGGAUUCCUCGUCACUCAGCAGGGCAUCUCUGAGAGAAAUGCC | 0.09
23 | UACGUAGGUGGUUUUCCCCUGAUAGUGCUAAGGGGGCCUGGGAGUUUGGACUGGGCAGAGCUCAACACAGCGUGGCAAAGUGGCUAUGGCUAGACUGCCUCUCUGGAUUCCUCGUCACUCAGCAGGGCCUCUCUGAGAGAAAUGCC | 0
24 | UACGUAGGUGGUUUUCCCCUGAUAGUGCUAAGGGGGCCUGGGAGUUUGGACUGGGCAGAGCUCAACACAGCGUGGCAAAGUGGCUGUGGCUAGACUACCUCUCUGGAUUCCUCGUCACUCAGCAGGGCAUCUCAGAGAGAAAUGCC | 0.07
25 | UACGUAGGUGGUUUUCCCCUGAUAGUGCUAAGGGGGCCUGGGAGCUUGAACUGGGCAGAGCUCAACACAGCGUGGCAAAGUGGCUGUGGCUAGACUGCCUCUCUGGAUUCCUCGUCACUCAGCAGGGCAUCUCUGAGAGAAAUGCC | 1.11
26 | UACGUAGGUGGUUUUCCCCUGAUAGUGCUAAGGGGGCCUGGGAGCUUGGACUGGGCAGAGCUCAACACAGCGUGGCAAAGUGGCUGUGGCUAGACUGCCUCUCUUGAUUCCCCGUCGCUCAGCAGGGCAUCUCUGAGAGAAAUGCC | 2.16
27 | UACGUAGGUGGUUUUCCCCUGAUAGUGCUAAGGGGGCCUGGGAGCUUGGACUGGGCAGAGCUCAACACAGCGAGGCAAAGUGGCUGUGGCUAGACUGCCUCUCUGGAUUCCUCGUCACUCAGCAGGGCAUCUCUGAGAGAAAUGCC | 1.64
28 | UACGUAGGUGGUUUUCCCCUGAUAGUGCUAAGGGGGCCUGGGAGCUUGGACUGGGCAGAGCUCAACACAGCGUGGCAAAGUGGCUGUGGCUAGACUGCCUCUCUGGAUUCCUCGUCACUCAGCAGGGCAUCCCUGAGAGAAAUGCC | 1.97
29 | UACGUAGGUGGUUUUCCCCUGAUAGUGCUAAGGGGGCCUGGGAGGUUGGACUGGGCAGAACUCAACACAGCGUGGCUAAGUGGCUGUGGCUACACUGCCUCUCUGGAUUCCUCGUCACUCAGCAGGGCGUCUCUGAGAGAAAUGCC | 0.04
30 | UACGUAGGUGGUUUUCCCCUGAUAGUGCUAAGGGGGCCUGGGAGUAUGGACUGGGCAGAGCUCAACACAGCGUGGCAAAGUGGCUGUGGCUAGACUGCCUCUCUGGAUUCCUCGCCACUCAGCAGGGCAUCUCUGAGAGAAAUGCC | 1.51
31 | UACGUAGGUGGUUUUCCCCUGAUAGUGCUAAGGGGGCCUGGGAGUCUGGACUGGGCAGAGCUCAACACAGCGUGGCAAAGUGGCUGUGGCUAGACUGCCUCUCUGGAUUCCUCGUCACUCAGCAGGGCAUCUAUGAGAGGAAUGCC | 1.58
32 | UACGUAGGUGGUUUUCCCCUGAUAGUGCUAAGGGGGCCUGGGAGUUAGGACUGGGCAGAGCUCAACGCAGCGUGGCAAAGUGGCUGUGGCUAGACUGCCUCUCUGGAUUCCCCGUCACUCAGCAGGGCAUCUCUGAGAGAAACGCC | 0.26
33 | UACGUAGGUGGUUUUCCCCUGAUAGUGCUAAGGGGGCCUGGGAGUUCGGACUGGGCAGAGCUCUACACAGCGUGGCAAAGUGGCUGUGGCUAGACUGCCUCUCUGGGUUCCUCGUCACUCAGCAGGGCAUCUCUGAGAGAAAUGCC | 0.81
34 | UACGUAGGUGGUUUUCCCCUGAUAGUGCUAAGGGGGCCUGGGAGUUCGGACUGGGCAGAGCUCAACACAGCGUGGCAAAGUGGCUGAGGCUAGACUGCCUCUCUGGAUUCCUCGUCACUCAGCAGGGCAUCUCUGAGAGAAAUGCC | 0.08
35 | UACGUAGGUGGUUUUCCCCUGAUAGUGCUAAGGGGGCCUGGGAGUUCGGACUGGGCAGAGCUCAACACAGCGUGGCAAAGUGGCUGUGGCUAGACUGCCUCUCUGGAUUCCUCGACACUCAGCAGGGCAUCUCUGAGAGAAAUGCC | 0.88
36 | UACGUAGGUGGUUUUCCCCUGAUAGUGCUAAGGGGGCCUGGGAGUUCGGACUGGGCAGAGCUCAACACAGCGUGGCAAAGUGGCUGUGGCUAGACUGCCUCUCUGGAUUCCUCGUCACUCAGCAGGGCAUCCCUGAGAGAGAUGCC | 2.19
37 | UACGUAGGUGGUUUUCCCCUGAUAGUGCUAAGGGGGCCUGGGAGUUGGGACUGGGCAGAGCCCAACACAGCGUGGCAAAGUGGCUGUGGCUAGACUGCCUCUCUGGAUUCCUCGUCACUCAGCAGGGCACCUCUGAGAGAAAUGCC | 0
38 | UACGUAGGUGGUUUUCCCCUGAUAGUGCUAAGGGGGCCUGGGAGUUUGGACAGGGCAGAGCUCAACACAGCGUGGCAAGGUGGCUGUGGCUAGACUGCCUCUCUGGAUUCCUCGUCACUCAGCAGGGCAUCUCUGAGAGAAAUGCC | 1.1
39 | UACGUAGGUGGUUUUCCCCUGAUAGUGCUAAGGGGGCCUGGGAGUUUGGACAGGGCAGAGCUCAACACAGCGUGGCAAAGUGGCUGUGGCUAGACUGCCUCUCUGGAUUCCUCGUCACUCAGCAGGGCAUCUCUGGGGGAAACGCC | 1.25
